The other results are listed elsewhere or left out. At the low end of the ranking, values are background and their order means little.

For the assay, the target named is T1, GST-Rok-C97-191 (UniProt O34857).
T1 sequence: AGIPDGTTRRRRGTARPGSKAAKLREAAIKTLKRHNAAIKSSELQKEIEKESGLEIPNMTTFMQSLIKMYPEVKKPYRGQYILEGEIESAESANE
In words: protein binding microarray.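 Further: rank score from −0.5 (least bound) to 0.5 (best bound).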 As to conditions: Rok is a gene silencer of Bacillus subtilis; high values mean tight binding; most listed sequences are background and not binding sites; double strand, one strand shown.
CCCGCACG gave a binding signal of -0.269 E-score.
Sequence TACATGGA gave a binding signal of 0.19 E-score.
The figure for CCGGTGAA is -0.243 E-score; for ACCGCTCG it is -0.0635 E-score; for ACAGCCGT it is -0.0887 E-score.
The result for AAATATTT reads 0.258 E-score.
The figure for ACTCCGTA is 0.0806 E-score; for CCCACGCC it is -0.245 E-score; for ATTGCGTC it is -0.121 E-score.
In turn, AATATTCA yielded a binding signal of 0.184 E-score.
The result for CGTTTACA reads -0.175 E-score.
The figure for AGGTGTCA is -0.135 E-score.
The figure for CCATCAGA is -0.0159 E-score; for GATGTTCA it is -3.34e-05 E-score.
In turn, GCCTTCAA returned a binding signal of -0.179 E-score.
The result for GTCTATGA reads -0.0759 E-score; that for AATCGTTA, 0.0533 E-score; that for AGGTACGG, -0.0216 E-score.
The sequence AATTAGCT registered a binding signal of 0.265 E-score.
The figure for ATTGTGCC is 0.109 E-score.
The result for AAATGCCT reads -0.046 E-score; that for AAGACAGG, -0.0648 E-score.
The figure for GTAGTCTA is 0.198 E-score; for ATTACACG it is 0.0847 E-score.
GCGCCCGC came in with a binding signal of -0.329 E-score.
The result for CACACGAG reads 0.0493 E-score; that for ACTAGGCA, 0.154 E-score; that for TGTCGAAA, 0.129 E-score.
The result for AGCCTATA reads 0.119 E-score; that for ATGTTGAC, -0.0509 E-score; that for ATAATACA, 0.242 E-score.
The figure for AATATATT is 0.417 E-score; for CTTGCCCA it is -0.13 E-score; for ACGAGAAG it is -0.21 E-score.
For AATTCATC, the binding signal is 0.0705 E-score.
The result for GCCCTAAA reads -0.14 E-score; that for TCGTATAA, 0.215 E-score; that for AGTTGCAT, 0.0854 E-score.
The result for AGCTAGTC reads 0.104 E-score; that for ATCGGGGA, -0.154 E-score; that for CGCAGAAC, -0.171 E-score.
The figure for CTCGTTCC is -0.14 E-score.
As to AGAATCAG, the binding signal turned out to be 0.233 E-score.
Consider GGTAGGAA, for which the binding signal came out at 0.247 E-score.
The result for ACAAAGTC reads -0.118 E-score; that for GTAGTGTA, 0.118 E-score.
For TAATAGAA, the binding signal came to 0.235 E-score.
The figure for ACGGTGCT is -0.195 E-score; for GCTGCTGA it is -0.137 E-score; for GCGATATA it is 0.282 E-score.
The result for CGGGCGAC reads -0.28 E-score; that for CTGCATAA, 0.156 E-score; that for ATTTGTGA, 0.193 E-score.
The figure for CACACGCG is -0.136 E-score.
The sequence AGCGTTCA showed a binding signal of -0.219 E-score.
The result for GCAACTTA reads 0.245 E-score.
The figure for ATTACATA is 0.224 E-score; for AATCTACG it is 0.36 E-score; for GCAAGAGA it is -0.0837 E-score.
The result for ATACAGGC reads -0.00913 E-score; that for CCTAACAG, -0.0844 E-score.
With CGGTGGCA, the binding signal was -0.127 E-score.
The figure for CAAAAGGG is -0.177 E-score.
For the sequence AGCATAGG, the binding signal stood at 0.182 E-score.
The result for GACGTTGC reads -0.152 E-score; that for AACGAGCA, -0.0844 E-score.
The result for CCTGATCA reads 0.0241 E-score; that for GTATGTAA, 0.152 E-score.
The figure for AACAAAAG is 0.0892 E-score; for CAATTAGC it is 0.0885 E-score.
TCGGGACA: the binding signal was -0.133 E-score.
The result for AACCCTCA reads -0.0708 E-score; that for CAGCGGAA, 0.0978 E-score.
The result for GACGGACC reads -0.182 E-score; that for ATCATTGA, 0.113 E-score.
The result for ACATTCAT reads 0.00809 E-score.
As for TCATTAAA, the binding signal is 0.0521 E-score.
The figure for AGGGGTTG is -0.353 E-score.
The figure for GCTCATAC is -0.0411 E-score; for CGATTGTC it is -0.15 E-score; for CCGCACGA it is -0.147 E-score.
The figure for CATATTGG is -0.084 E-score; for ATTCCGCG it is 0.14 E-score.
The sequence AAGTATCT showed a binding signal of 0.297 E-score.
Consider TGCTAGAA, for which the binding signal worked out at 0.364 E-score.
The figure for GTAGCCGA is 0.0637 E-score; for GGACACCC it is -0.231 E-score.
The figure for CTACAGAA is 0.189 E-score; for AATTATTG it is 0.204 E-score.
The result for GTATGTCA reads 0.0225 E-score; that for AGTCCGCA, 0.0287 E-score.
On to ATAAGATC, for which the binding signal was 0.248 E-score.
The figure for CGCTAAAA is 0.0839 E-score; for AACTTCCC it is 0.00325 E-score.
In the case of ACCACAAG, the binding signal is -0.0254 E-score.
On to AGTAGTTG, for which the binding signal was 0.393 E-score.
As for ATCCCTTA, the binding signal worked out at 0.0454 E-score.
The figure for CTCGCCGA is -0.262 E-score; for ACCAATTA it is 0.0161 E-score.
Take CTATATAC: the binding signal amounted to 0.376 E-score.
The result for AACTTTGT reads -0.00531 E-score; that for CACATGAA, 0.141 E-score.
The result for GCGCTACA reads 0.142 E-score; that for CATACTCG, -0.0996 E-score; that for CACGACCC, -0.0829 E-score.
The result for ACTGGGTG reads -0.153 E-score; that for GGCTGGAC, -0.111 E-score.
Regarding CGAGATCA, the binding signal was -0.0124 E-score.
Turning to AGCAGAGC, the binding signal was -0.0621 E-score.
For AACTCCTA, the binding signal is 0.175 E-score.
The figure for GGACAAAC is 0.0466 E-score; for AATTCGAA it is 0.202 E-score; for CAGCCCAG it is -0.136 E-score.
The figure for GAAAAGCC is 0.0409 E-score.
For AAACATAC, the binding signal was 0.297 E-score.
The sequence CATGAATG registered a binding signal of -0.00652 E-score.
The result for ACATAGCA reads 0.0734 E-score; that for ATACTAAT, 0.321 E-score; that for GAGCTCGC, -0.123 E-score.
The figure for AACACCCC is -0.153 E-score; for CGAACACA it is -0.142 E-score.
The result for GTGGGTGA reads 0.0534 E-score; that for CGATAGCG, -0.126 E-score; that for ATCACCTC, -0.12 E-score.
Take AAGCTAGC: the binding signal turned out to be 0.254 E-score.
The figure for CCCGGGGA is -0.298 E-score; for ATCCCCCG it is -0.0706 E-score; for GCCGAACC it is -0.0657 E-score.
The figure for CAAAATTG is 0.185 E-score; for CGACCAAG it is 0.0163 E-score; for AAATCCGA it is -0.0171 E-score.
For GCTGCAAC, the binding signal was -0.13 E-score.
The figure for ATCACGGA is -0.157 E-score; for ACCGGGGC it is -0.341 E-score.
The result for ATGCCAGG reads -0.0548 E-score.
The figure for ACCTCCAG is -0.197 E-score; for ATTGTCCA it is -0.0322 E-score; for GTTTAAGA it is 0.0894 E-score.
The sequence GCTCTCCA returned a binding signal of -0.345 E-score.
The result for CTTCGGTA reads 0.0404 E-score; that for ATTCAATG, -0.0215 E-score.
As to ATGCAATA, the binding signal was -0.0814 E-score.
Consider GTAGCAAA, for which the binding signal is 0.203 E-score.
The figure for AGTGCCTA is -0.0378 E-score; for AGTCAATC it is 0.0132 E-score; for AGATAACT it is 0.203 E-score.
Consider ATCACATC, for which the binding signal was 0.00892 E-score.
In the case of TCTTAACA, the binding signal was determined as 0.114 E-score.
The result for CAAAGGGG reads -0.16 E-score; that for TAAAAGTA, 0.273 E-score.
The figure for AACAGGTT is -0.172 E-score; for AAGAGGCT it is -0.168 E-score.
The figure for AAATAGAC is 0.0478 E-score; for ATTAGGGA it is -0.124 E-score; for TATCGCAA it is 0.201 E-score.
With TCTATCCA, the binding signal was -0.00965 E-score.
The result for GGGCCTTA reads -0.245 E-score; that for ACACCCAC, 0.0639 E-score; that for CCACGAGG, -0.336 E-score.
The figure for ACACTAGT is 0.257 E-score; for ACTTCCAG it is 0.12 E-score.
The figure for CCTAGCGA is -0.101 E-score; for AGTAATAT it is 0.386 E-score; for ATATAGAC it is -0.00572 E-score.
Turning to AGATTGCT, the binding signal is -0.0857 E-score.
The figure for GTATCCAC is -0.0162 E-score; for CTTGGATA it is 0.0487 E-score; for AACTCGCT it is 0.0469 E-score.
The figure for GTTGAACA is -0.213 E-score; for AAGCCAAA it is -0.175 E-score; for CGCTCTAA it is 0.0938 E-score.
The result for GGGCACAC reads -0.201 E-score.

These data come from paper PMC6212790.
